For at least one compound, name, drawing or mass did not settle the structure. Numbered stars: 1 amine (or outer) side, 2 acyl side, 3 side chain; on linkers, the order of the positions; unused ones are H or OH. Bridge positions count the residues as written; N and C are the ends. Square brackets hold non-standard residues; d marks the D form. Side chains are listed from the residue outwards. Peptide text beside a SMILES is read from it. * marks the point of attachment. C20 diacid = O=C(O)CCCCCCCCCCCCCCCCCCC(=O)*; X1 = N[C@@H]1CCN([*:1])[C@@H]1C(=O)[*:2]; γGlu = O=C(O)[C@H](CCC(=O)[*:2])N[*:1]; Hyp = O=C(O)[C@@H]1C[C@@H](O)CN1; Trx = NC[C@H]1CC[C@H](C(=O)O)CC1; AEEA = NCCOCCOCC(=O)O
Target: T1, human amylin receptor (Homo sapiens, UniProt O60896+P30988)
T1 construct: host or cells: CHO-K1/Ga15/AMY3 cells, further stably transfected with a CRE-luciferase plasmid
T1 sequence (P30988 25-474): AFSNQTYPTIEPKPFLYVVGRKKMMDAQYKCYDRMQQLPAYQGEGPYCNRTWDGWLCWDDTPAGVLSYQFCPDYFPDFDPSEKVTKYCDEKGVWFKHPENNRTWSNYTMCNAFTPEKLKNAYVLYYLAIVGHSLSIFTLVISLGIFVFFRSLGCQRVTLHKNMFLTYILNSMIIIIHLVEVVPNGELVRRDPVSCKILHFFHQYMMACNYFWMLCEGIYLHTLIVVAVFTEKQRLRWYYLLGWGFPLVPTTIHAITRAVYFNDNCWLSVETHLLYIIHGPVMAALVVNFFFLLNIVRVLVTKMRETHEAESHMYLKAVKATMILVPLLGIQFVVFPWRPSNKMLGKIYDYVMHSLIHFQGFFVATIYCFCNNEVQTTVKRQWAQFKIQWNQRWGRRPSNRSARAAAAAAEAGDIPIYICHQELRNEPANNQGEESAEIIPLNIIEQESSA
T1 sequence (O60896 24-148 partner): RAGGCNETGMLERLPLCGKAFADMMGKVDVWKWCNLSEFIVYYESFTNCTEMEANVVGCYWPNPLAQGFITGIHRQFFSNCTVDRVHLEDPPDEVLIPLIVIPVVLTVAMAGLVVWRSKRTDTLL
Test: Luciferase assay of amylin derivatives in amylin receptor/CRE-luc CHO cell line
Format: cell-based
Settings: CHO-K1/Ga15/AMY3 CRE-luc cells, 24 hours incubation, F12 medium containing 10% FBS

| SMILES | EC50 [nM] |
| --- | --- |
| CC[C@H](C)[C@H](NC(=O)[C@@H]1CCCN1C(=O)[C@H](CCCCNC(=O)CC[C@H](NC(=O)CCCCCCCCCCCCCCCCCCC(=O)O)C(=O)O)NC(=O)[C@H](CC(C)C)NC(=O)[C@H](CC(N)=O)NC(=O)[C@H](CC(N)=O)NC(=O)[C@H](CO)NC(=O)[C@H](CO)NC(=O)[C@H](Cc1c[nH]cn1)NC(=O)[C@H](CCCNC(=N)N)NC(=O)[C@H](CC(C)C)NC(=O)[C@H](Cc1ccccc1)NC(=O)[C@H](CC(=O)O)NC(=O)[C@H](C)NC(=O)[C@H](CC(C)C)NC(=O)[C@H](CCCNC(=N)N)NC(=O)[C@H](CCC(N)=O)NC(=O)[C@@H](NC(=O)[C@H](C)NC(=O)[C@@H]1CSSC[C@H](NC(=O)[C@@H](N)CCCNC(=N)N)C(=O)N[C@@H](CC(N)=O)C(=O)N[C@@H]([C@@H](C)O)C(=O)N[C@@H](C)C(=O)N[C@@H]([C@@H](C)O)C(=O)N1)[C@@H](C)O)C(=O)N[C@@H](CC(C)C)C(=O)N1CCC[C@H]1C(=O)N1CCC[C@H]1C(=O)N[C@H](C(=O)N[C@@H](CC(N)=O)C(=O)N[C@H](C(=O)NCC(=O)N[C@@H](CO)C(=O)N[C@@H](CC(N)=O)C(=O)N[C@H](C(=O)N1CCC[C@H]1C(N)=O)[C@@H](C)O)C(C)C)[C@@H](C)O [PD042] (H-RCNTATCATQRLADFLRHSSNNLK([γGlu-C20 diacid])PILPPTNVGSNTP-NH2; disulfide 2-7 (inferred); N-terminus assumed) | 0.111 |
| CC[C@H](C)[C@H](NC(=O)[C@@H]1CCCN1C(=O)[C@H](CCCCNC(=O)CC[C@H](NC(=O)CCCCCCCCCCCCCCCCCCC(=O)O)C(=O)O)NC(=O)[C@H](CC(C)C)NC(=O)[C@H](CC(N)=O)NC(=O)[C@H](CC(N)=O)NC(=O)[C@H](CO)NC(=O)[C@H](CO)NC(=O)[C@H](Cc1c[nH]cn1)NC(=O)[C@H](CCCNC(=N)N)NC(=O)[C@H](CC(C)C)NC(=O)[C@H](Cc1ccccc1)NC(=O)[C@H](CC(=O)O)NC(=O)[C@H](C)NC(=O)[C@H](CC(C)C)NC(=O)[C@H](CCCNC(=N)N)NC(=O)[C@H](CCC(N)=O)NC(=O)[C@@H](NC(=O)[C@H](C)NC(=O)[C@@H]1CSSC[C@H](NC(=O)[C@@H](N)CCCNC(=N)N)C(=O)N[C@@H](CC(N)=O)C(=O)N[C@@H]([C@@H](C)O)C(=O)N[C@@H](C)C(=O)N[C@@H]([C@@H](C)O)C(=O)N1)[C@@H](C)O)C(=O)N[C@@H](CC(C)C)C(=O)N1CCC[C@H]1C(=O)N1CCC[C@H]1C(=O)N[C@H](C(=O)N[C@@H](CC(N)=O)C(=O)N[C@H](C(=O)NCC(=O)N[C@@H](CO)C(=O)N[C@@H](CC(N)=O)C(=O)N[C@H](C(=O)N1CCC[C@H]1C(N)=O)[C@@H](C)O)C(C)C)[C@@H](C)O [PD048] (H-RCNTATCATQRLADFLRHSSNNLK([γGlu-C20 diacid])PILPPTNVGSNTP-NH2; disulfide 2-7 (inferred); N-terminus assumed) | 0.047 |
| CC[C@H](C)[C@H](NC(=O)[C@@H]1CCCN1C(=O)[C@H](CCCCNC(=O)CC[C@H](NC(=O)CCCCCCCCCCCCCCCCCCC(=O)O)C(=O)O)NC(=O)[C@H](CC(C)C)NC(=O)[C@H](CC(N)=O)NC(=O)[C@H](CC(N)=O)NC(=O)[C@H](CO)NC(=O)[C@H](CO)NC(=O)[C@H](Cc1c[nH]cn1)NC(=O)[C@H](CCCNC(=N)N)NC(=O)[C@H](CC(C)C)NC(=O)[C@H](Cc1ccccc1)NC(=O)[C@H](CCC(=O)O)NC(=O)[C@H](C)NC(=O)[C@H](CC(C)C)NC(=O)[C@H](CCCNC(=N)N)NC(=O)[C@H](CCC(N)=O)NC(=O)[C@@H](NC(=O)[C@H](C)NC(=O)[C@@H]1CSSC[C@H](NC(=O)[C@@H](N)CCCNC(=N)N)C(=O)N[C@@H](CC(N)=O)C(=O)N[C@@H]([C@@H](C)O)C(=O)N[C@@H](C)C(=O)N[C@@H]([C@@H](C)O)C(=O)N1)[C@@H](C)O)C(=O)N[C@@H](CC(C)C)C(=O)N1CCC[C@H]1C(=O)N1CCC[C@H]1C(=O)N[C@H](C(=O)N[C@@H](CC(N)=O)C(=O)N[C@H](C(=O)NCC(=O)N[C@@H](CO)C(=O)N[C@@H](CC(N)=O)C(=O)N[C@H](C(=O)N1CC[C@@H](N)[C@H]1C(N)=O)[C@@H](C)O)C(C)C)[C@@H](C)O [PD061] (H-RCNTATCATQRLAEFLRHSSNNLK([γGlu-C20 diacid])PILPPTNVGSNT[X1]-NH2; disulfide 2-7; N-terminus assumed) | 0.815 |
| CC[C@H](C)[C@H](NC(=O)[C@@H]1CCCN1C(=O)[C@H](CCCCNC(=O)CC[C@H](NC(=O)CCCCCCCCCCCCCCCCCCC(=O)O)C(=O)O)NC(=O)[C@H](CC(C)C)NC(=O)[C@H](CC(N)=O)NC(=O)[C@H](CC(N)=O)NC(=O)[C@H](CO)NC(=O)[C@H](CO)NC(=O)[C@H](Cc1c[nH]cn1)NC(=O)[C@H](CCCNC(=N)N)NC(=O)[C@H](CC(C)C)NC(=O)[C@H](Cc1ccccc1)NC(=O)[C@H](CC(=O)O)NC(=O)[C@H](C)NC(=O)[C@H](CC(C)C)NC(=O)[C@H](CCCNC(=N)N)NC(=O)[C@H](CCC(N)=O)NC(=O)[C@@H](NC(=O)[C@H](C)NC(=O)[C@@H]1CSSC[C@H](NC(=O)[C@@H](N)CCCNC(=N)N)C(=O)N[C@@H](CC(N)=O)C(=O)N[C@@H]([C@@H](C)O)C(=O)N[C@@H](C)C(=O)N[C@@H]([C@@H](C)O)C(=O)N1)[C@@H](C)O)C(=O)N[C@@H](CC(C)C)C(=O)N1CCC[C@H]1C(=O)N1CCC[C@H]1C(=O)N[C@H](C(=O)N[C@@H](CC(N)=O)C(=O)N[C@H](C(=O)NCC(=O)N[C@@H](CO)C(=O)N[C@@H](CC(N)=O)C(=O)N[C@H](C(=O)N1CC[C@@H](N)[C@H]1C(N)=O)[C@@H](C)O)C(C)C)[C@@H](C)O [PD062] (H-RCNTATCATQRLADFLRHSSNNLK([γGlu-C20 diacid])PILPPTNVGSNT[X1]-NH2; disulfide 2-7; N-terminus assumed) | 0.374 |
| CC[C@H](C)[C@H](NC(=O)[C@@H]1CCCN1C(=O)[C@H](CCCCN)NC(=O)[C@H](CC(C)C)NC(=O)[C@H](CC(N)=O)NC(=O)[C@H](CC(N)=O)NC(=O)[C@H](CO)NC(=O)[C@H](CO)NC(=O)[C@H](Cc1c[nH]cn1)NC(=O)[C@H](CCCNC(=N)N)NC(=O)[C@H](CC(C)C)NC(=O)[C@H](Cc1ccccc1)NC(=O)[C@H](CC(=O)O)NC(=O)[C@H](C)NC(=O)[C@H](CC(C)C)NC(=O)[C@H](CCCNC(=N)N)NC(=O)[C@H](CCC(N)=O)NC(=O)[C@@H](NC(=O)[C@H](C)NC(=O)[C@@H]1CSSC[C@H](NC(=O)[C@H](CCCCN)NC(=O)CC[C@H](NC(=O)CCCCCCCCCCCCCCCCCCC(=O)O)C(=O)O)C(=O)N[C@@H](CC(N)=O)C(=O)N[C@@H]([C@@H](C)O)C(=O)N[C@@H](C)C(=O)N[C@@H]([C@@H](C)O)C(=O)N1)[C@@H](C)O)C(=O)N[C@@H](CC(C)C)C(=O)N1CCC[C@H]1C(=O)N1CCC[C@H]1C(=O)N[C@H](C(=O)N[C@@H](CC(N)=O)C(=O)N[C@H](C(=O)NCC(=O)N[C@@H](CO)C(=O)N[C@@H](CC(N)=O)C(=O)N[C@H](C(=O)N1CCC[C@H]1C(N)=O)[C@@H](C)O)C(C)C)[C@@H](C)O [PD167] ({C20 diacid-γGlu}-KCNTATCATQRLADFLRHSSNNLKPILPPTNVGSNTP-NH2; disulfide 2-7) | 0.05 |
| CC[C@H](C)[C@H](NC(=O)[C@@H]1CCCN1C(=O)[C@H](CCCCN)NC(=O)[C@H](CC(C)C)NC(=O)[C@H](CC(N)=O)NC(=O)[C@H](CC(N)=O)NC(=O)[C@H](CO)NC(=O)[C@H](CO)NC(=O)[C@H](Cc1c[nH]cn1)NC(=O)[C@H](CCCNC(=N)N)NC(=O)[C@H](CC(C)C)NC(=O)[C@H](Cc1ccccc1)NC(=O)[C@H](CC(=O)O)NC(=O)[C@H](C)NC(=O)[C@H](CC(C)C)NC(=O)[C@H](CCCNC(=N)N)NC(=O)[C@H](CCC(N)=O)NC(=O)[C@@H](NC(=O)[C@H](C)NC(=O)[C@@H]1CSSC[C@H](NC(=O)[C@H](CCCCN)NC(=O)COCCOCCNC(=O)COCCOCCNC(=O)[C@H]2CC[C@H](CNC(=O)CCCCCCCCCCCCCCCCCCC(=O)O)CC2)C(=O)N[C@@H](CC(N)=O)C(=O)N[C@@H]([C@@H](C)O)C(=O)N[C@@H](C)C(=O)N[C@@H]([C@@H](C)O)C(=O)N1)[C@@H](C)O)C(=O)N[C@@H](CC(C)C)C(=O)N1CCC[C@H]1C(=O)N1CCC[C@H]1C(=O)N[C@H](C(=O)N[C@@H](CC(N)=O)C(=O)N[C@H](C(=O)NCC(=O)N[C@@H](CO)C(=O)N[C@@H](CC(N)=O)C(=O)N[C@H](C(=O)N1C[C@H](O)C[C@H]1C(N)=O)[C@@H](C)O)C(C)C)[C@@H](C)O [PD177] ({C20 diacid-Trx-AEEA-AEEA}-KCNTATCATQRLADFLRHSSNNLKPILPPTNVGSNT[Hyp]-NH2; disulfide 2-7) | 0.024 |

Source: patent US20260166128A1, “HUMAN AMYLIN ANALOG, AND DERIVATIVE THEREOF AND USE THEREOF” (priority 2022, published 2026)
